The supplement of paper PMC8728848
Some of the results follow.

Assays:
Experiment in all cases: glycan array binding signal (z-score within array); higher = stronger binding
Details in all cases: glycan notation: IUPAC condensed, linker removed
[1] = molecular target: GlcNAc(b1-2)Gal(b1-3)GalNAc
Method in brief: (§1)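 Glycan array data came from 3228 arrays in the Consortium for Functional Glycomics database, and only arrays with an available protein sequence were kept. Glycan names were put into IUPAC-condensed notation, and columns mapping to the same glycan were averaged. The binding signal is a within-array Z-score, averaged across arrays of one protein sequence run at different concentrations or buffers and across linkers. A negative Z-score can be read as non-binding.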

[2] = molecular target: GlcNAc(b1-2)Man(a1-3)[GlcNAc(b1-2)Man(a1-6)]Man(b1-4)GlcNAc(b1-4)GlcNAc
Method in brief: as §1

[3] = molecular target: GlcNAc(b1-2)Man(a1-3)[GlcNAc(b1-2)Man(a1-6)]Man(b1-4)GlcNAc(b1-4)[Fuc(a1-6)]GlcNAc
Method in brief: as §1

[4] = molecular target: GlcNAc(b1-2)Man(a1-3)[GlcNAc(b1-4)][GlcNAc(b1-2)Man(a1-6)]Man(b1-4)GlcNAc(b1-4)GlcNAc
Method in brief: as §1

[5] = molecular target: GlcNAc(b1-2)Man(a1-3)[GlcNAc(b1-4)][GlcNAc(b1-2)Man(a1-6)]Man(b1-4)GlcNAc(b1-4)[Fuc(a1-6)]GlcNAc
Method in brief: as §1

[6] = molecular target: GlcNAc(b1-2)[GlcNAc(b1-4)]Man(a1-3)[GlcNAc(b1-2)Man(a1-6)]Man(b1-4)GlcNAc(b1-4)GlcNAc
Method in brief: as §1

[7] = molecular target: GlcNAc(b1-2)[GlcNAc(b1-4)]Man(a1-3)[GlcNAc(b1-4)][GlcNAc(b1-2)Man(a1-6)]Man(b1-4)GlcNAc(b1-4)GlcNAc
Method in brief: as §1

[8] = molecular target: GlcNAc(b1-2)[GlcNAc(b1-4)]Man(a1-3)[GlcNAc(b1-4)][GlcNAc(b1-2)[GlcNAc(b1-6)]Man(a1-6)]Man(b1-4)GlcNAc(b1-4)GlcNAc
Method in brief: as §1

[9] = molecular target: GlcNAc(b1-2)[GlcNAc(b1-4)]Man(a1-3)[GlcNAc(b1-4)][GlcNAc(b1-2)[GlcNAc(b1-6)]Man(a1-6)]Man(b1-4)GlcNAc(b1-4)[Fuc(a1-6)]GlcNAc
Method in brief: as §1

[10] = molecular target: GlcNAc(b1-2)[GlcNAc(b1-6)]Man(a1-6)[GlcNAc(b1-2)Man(a1-3)]Man(b1-4)GlcNAc(b1-4)GlcNAc
Method in brief: as §1

[11] = molecular target: GlcNAc(b1-2)[GlcNAc(b1-6)]Man(a1-6)[GlcNAc(b1-2)Man(a1-3)]Man(b1-4)GlcNAc(b1-4)[Fuc(a1-6)]GlcNAc
Method in brief: as §1

[12] = molecular target: GlcNAc(b1-2)[GlcNAc(b1-6)]Man(a1-6)[GlcNAc(b1-4)][GlcNAc(b1-2)Man(a1-3)]Man(b1-4)GlcNAc(b1-4)GlcNAc
Method in brief: as §1

[13] = molecular target: GlcNAc(b1-3)Fuc
Method in brief: as §1

[14] = molecular target: GlcNAc(b1-3)Gal
Method in brief: as §1

[15] = molecular target: GlcNAc(b1-3)Gal(b1-3)GalNAc
Method in brief: as §1

[16] = molecular target: GlcNAc(b1-3)Gal(b1-4)Glc
Method in brief: as §1

[17] = molecular target: GlcNAc(b1-3)Gal(b1-4)GlcNAc
Method in brief: as §1

[18] = molecular target: GlcNAc(b1-3)Gal(b1-4)GlcNAc(b1-2)Man(a1-3)[GlcNAc(b1-3)Gal(b1-4)GlcNAc(b1-2)Man(a1-6)]Man(b1-4)GlcNAc(b1-4)GlcNAc
Method in brief: as §1

[19] = molecular target: GlcNAc(b1-3)Gal(b1-4)GlcNAc(b1-2)Man(a1-3)[GlcNAc(b1-3)Gal(b1-4)GlcNAc(b1-2)Man(a1-6)]Man(b1-4)GlcNAc(b1-4)[Fuc(a1-6)]GlcNAc
Method in brief: as §1

[20] = molecular target: GlcNAc(b1-3)Gal(b1-4)GlcNAc(b1-2)[GlcNAc(b1-3)Gal(b1-4)GlcNAc(b1-6)]Man(a1-6)[GlcNAc(b1-3)Gal(b1-4)GlcNAc(b1-2)Man(a1-3)]Man(b1-4)GlcNAc(b1-4)GlcNAc
Method in brief: as §1

[21] = molecular target: GlcNAc(b1-3)Gal(b1-4)GlcNAc(b1-3)Gal(b1-4)GlcNAc
Method in brief: as §1

[22] = molecular target: GlcNAc(b1-3)Gal(b1-4)GlcNAc(b1-3)Gal(b1-4)GlcNAc(b1-2)Man(a1-3)[GlcNAc(b1-3)Gal(b1-4)GlcNAc(b1-3)Gal(b1-4)GlcNAc(b1-2)Man(a1-6)]Man(b1-4)GlcNAc(b1-4)GlcNAc
Method in brief: as §1

[23] = molecular target: GlcNAc(b1-3)Gal(b1-4)GlcNAc(b1-3)Gal(b1-4)GlcNAc(b1-2)Man(a1-3)[GlcNAc(b1-3)Gal(b1-4)GlcNAc(b1-3)Gal(b1-4)GlcNAc(b1-2)Man(a1-6)]Man(b1-4)GlcNAc(b1-4)[Fuc(a1-6)]GlcNAc
Method in brief: as §1

[24] = molecular target: GlcNAc(b1-3)Gal(b1-4)GlcNAc(b1-3)Gal(b1-4)GlcNAc(b1-2)[GlcNAc(b1-3)Gal(b1-4)GlcNAc(b1-3)Gal(b1-4)GlcNAc(b1-6)]Man(a1-6)[GlcNAc(b1-3)Gal(b1-4)GlcNAc(b1-3)Gal(b1-4)GlcNAc(b1-2)Man(a1-3)]Man(b1-4)GlcNAc(b1-4)[Fuc(a1-6)]GlcNAc
Method in brief: as §1

[25] = molecular target: GlcNAc(b1-3)Gal(b1-4)GlcNAc(b1-3)Gal(b1-4)GlcNAc(b1-3)Gal(b1-4)GlcNAc(b1-2)Man(a1-3)[GlcNAc(b1-3)Gal(b1-4)GlcNAc(b1-3)Gal(b1-4)GlcNAc(b1-3)Gal(b1-4)GlcNAc(b1-2)Man(a1-6)]Man(b1-4)GlcNAc(b1-4)GlcNAc
Method in brief: as §1

[26] = molecular target: GlcNAc(b1-3)Gal(b1-4)GlcNAc(b1-3)Gal(b1-4)GlcNAc(b1-3)Gal(b1-4)GlcNAc(b1-2)Man(a1-3)[GlcNAc(b1-3)Gal(b1-4)GlcNAc(b1-3)Gal(b1-4)GlcNAc(b1-3)Gal(b1-4)GlcNAc(b1-2)Man(a1-6)]Man(b1-4)GlcNAc(b1-4)[Fuc(a1-6)]GlcNAc
Method in brief: as §1

[27] = molecular target: GlcNAc(b1-3)Gal(b1-4)GlcNAc(b1-3)Gal(b1-4)GlcNAc(b1-3)Gal(b1-4)GlcNAc(b1-2)[GlcNAc(b1-3)Gal(b1-4)GlcNAc(b1-3)Gal(b1-4)GlcNAc(b1-3)Gal(b1-4)GlcNAc(b1-6)]Man(a1-6)[GlcNAc(b1-3)Gal(b1-4)GlcNAc(b1-3)Gal(b1-4)GlcNAc(b1-3)Gal(b1-4)GlcNAc(b1-2)Man(a1-3)]Man(b1-4)GlcNAc(b1-4)[Fuc(a1-6)]GlcNAc
Method in brief: as §1

[28] = molecular target: GlcNAc(b1-3)Gal(b1-4)GlcNAc(b1-3)Gal(b1-4)GlcNAc(b1-3)Gal(b1-4)GlcNAc(b1-3)Gal(b1-4)GlcNAc(b1-2)Man(a1-3)[GlcNAc(b1-3)Gal(b1-4)GlcNAc(b1-3)Gal(b1-4)GlcNAc(b1-3)Gal(b1-4)GlcNAc(b1-3)Gal(b1-4)GlcNAc(b1-2)Man(a1-6)]Man(b1-4)GlcNAc(b1-4)GlcNAc
Method in brief: as §1

[29] = molecular target: GlcNAc(b1-3)Gal(b1-4)GlcNAc(b1-3)Gal(b1-4)GlcNAc(b1-3)Gal(b1-4)GlcNAc(b1-3)Gal(b1-4)GlcNAc(b1-2)Man(a1-3)[GlcNAc(b1-3)Gal(b1-4)GlcNAc(b1-3)Gal(b1-4)GlcNAc(b1-3)Gal(b1-4)GlcNAc(b1-3)Gal(b1-4)GlcNAc(b1-2)Man(a1-6)]Man(b1-4)GlcNAc(b1-4)[Fuc(a1-6)]GlcNAc
Method in brief: as §1

[30] = molecular target: GlcNAc(b1-3)Gal(b1-4)GlcNAc(b1-3)Gal(b1-4)GlcNAc(b1-3)Gal(b1-4)GlcNAc(b1-3)Gal(b1-4)GlcNAc(b1-2)[GlcNAc(b1-3)Gal(b1-4)GlcNAc(b1-3)Gal(b1-4)GlcNAc(b1-3)Gal(b1-4)GlcNAc(b1-3)Gal(b1-4)GlcNAc(b1-6)]Man(a1-6)[GlcNAc(b1-3)Gal(b1-4)GlcNAc(b1-3)Gal(b1-4)GlcNAc(b1-3)Gal(b1-4)GlcNAc(b1-3)Gal(b1-4)GlcNAc(b1-2)Man(a1-3)]Man(b1-4)GlcNAc(b1-4)[Fuc(a1-6)]GlcNAc
Method in brief: as §1

[31] = molecular target: GlcNAc(b1-3)Gal(b1-4)GlcNAc(b1-3)Gal(b1-4)GlcNAc(b1-3)GalNAc
Method in brief: as §1

[32] = molecular target: GlcNAc(b1-3)Gal(b1-4)GlcNAc(b1-3)GalNAc
Method in brief: as §1

[33] = molecular target: GlcNAc(b1-3)Gal(b1-4)GlcNAc(b1-3)[GlcNAc(b1-3)Gal(b1-4)GlcNAc(b1-3)]GalNAc
Method in brief: as §1

[34] = molecular target: GlcNAc(b1-3)Gal(b1-4)GlcNAc(b1-6)[Gal(b1-3)]GalNAc
Method in brief: as §1

[35] = molecular target: GlcNAc(b1-3)Gal(b1-4)GlcNAc(b1-6)[GlcNAc(b1-3)Gal(b1-3)]GalNAc
Method in brief: as §1

[36] = molecular target: GlcNAc(b1-3)Gal(b1-4)GlcNAc(b1-6)[GlcNAc(b1-3)]Gal(b1-4)GlcNAc
Method in brief: as §1

[37] = molecular target: GlcNAc(b1-3)GalNAc
Method in brief: as §1

[38] = molecular target: GlcNAc(b1-3)Man
Method in brief: as §1

[39] = molecular target: GlcNAc(b1-3)[GlcNAc(b1-4)][GlcNAc(b1-6)]GlcNAc
Method in brief: as §1

[40] = molecular target: GlcNAc(b1-3)[GlcNAc(b1-6)]Gal(b1-4)GlcNAc
Method in brief: as §1

[41] = molecular target: GlcNAc(b1-3)[GlcNAc(b1-6)]GalNAc
Method in brief: as §1

[42] = molecular target: GlcNAc(b1-4)Gal(b1-4)GlcNAc
Method in brief: as §1

[43] = molecular target: GlcNAc(b1-4)GlcNAc
Method in brief: as §1

[44] = molecular target: GlcNAc(b1-4)GlcNAc(b1-4)GlcNAc
Method in brief: as §1

[45] = molecular target: GlcNAc(b1-4)GlcNAc(b1-4)GlcNAc(b1-4)GlcNAc(b1-4)GlcNAc
Method in brief: as §1

B1: OGAA (protein)
chain: MVQKESQATLEERESELSSNPAASAGASLEPPAAPAPGEDNPAGAGGAAVAGAAGGARRFLCGVVEGFYGRPWVMEQRKELFRRLQKWELNTYLYAPKDDYKHRMFWREMYSVEEAEQLMTLISAAREYEIEFIYAISPGLDITFSNPKEVSTLKRKLDQVSQFGCRSFALLFADIDHNMCAADKEVFSSFAHAQVSITNEIYQYLGEPETFLFCPTEYCGTFCYPNVSQSPYLRTVGEKLLPGIEVLWTGPKVVSKEIPVESIEEVSKIIKRAPVIWDNIHANDYDQKRLFLGPYKGRSTELIPRLKGVLTNPNCEFEANYVAIHTLATWYKSNMNGVRKDVVMTDSEDSTVSIQIKLENEGSDEDIETDVLYSPQMALKLALTEWLQEFGVPHQY
glycan array binding signal (z-score) [1]: -0.094
glycan array binding signal (z-score) [2]: -0.07
glycan array binding signal (z-score) [3]: -0.042
glycan array binding signal (z-score) [4]: -0.118
glycan array binding signal (z-score) [5]: -0.068
glycan array binding signal (z-score) [6]: 0.02
glycan array binding signal (z-score) [7]: -0.083
glycan array binding signal (z-score) [8]: -0.071
glycan array binding signal (z-score) [9]: -0.11
glycan array binding signal (z-score) [10]: -0.086
glycan array binding signal (z-score) [11]: -0.017
glycan array binding signal (z-score) [12]: -0.141
glycan array binding signal (z-score) [13]: -0.112
glycan array binding signal (z-score) [14]: -0.049
glycan array binding signal (z-score) [15]: -0.053
glycan array binding signal (z-score) [16]: -0.091
glycan array binding signal (z-score) [17]: -0.079
glycan array binding signal (z-score) [18]: -0.092
glycan array binding signal (z-score) [19]: -0.029
glycan array binding signal (z-score) [20]: 0.013
glycan array binding signal (z-score) [21]: -0.034
glycan array binding signal (z-score) [22]: -0.009
glycan array binding signal (z-score) [23]: -0.083
glycan array binding signal (z-score) [24]: 0.011
glycan array binding signal (z-score) [25]: -0.1
glycan array binding signal (z-score) [26]: -0.055
glycan array binding signal (z-score) [27]: -0.048
glycan array binding signal (z-score) [28]: -0.021
glycan array binding signal (z-score) [29]: -0.105
glycan array binding signal (z-score) [30]: -0.029
glycan array binding signal (z-score) [31]: -0.06
glycan array binding signal (z-score) [32]: -0.053
glycan array binding signal (z-score) [33]: 0.062
glycan array binding signal (z-score) [34]: -0.119
glycan array binding signal (z-score) [35]: -0.118
glycan array binding signal (z-score) [36]: -0.093
glycan array binding signal (z-score) [37]: -0.038
glycan array binding signal (z-score) [38]: -0.115
glycan array binding signal (z-score) [39]: -0.101
glycan array binding signal (z-score) [40]: -0.11
glycan array binding signal (z-score) [41]: -0.026
glycan array binding signal (z-score) [42]: -0.129
glycan array binding signal (z-score) [43]: -0.105
glycan array binding signal (z-score) [44]: -0.101
glycan array binding signal (z-score) [45]: -0.126
